Results reported in PubChem BioAssay AID2326 (National Center for Advancing Translational Sciences (NCATS), 2010).
The whole screen tested about 270,000 compounds, of which about 1,100 (0.41%) were called active. About 3% were inconclusive and are not listed. Calls come from the whole dose curve. The list shows a part of the results, in another mix than the full data. Entries without a call were filed so in the source.

Test: qHTS Assay for Inhibitors of Influenza NS1 Protein Function; note: actives are rising curves; nearly all actives have a fitted effect of over 50% in size
Conditions: activity, positive = more growth: at 46.1 µM (top of the series)
Text: NIH Chemical Genomics Center [NCGC]
NIH Molecular Libraries Probe Centers Network [MLPCN]
Assay Submitter (PI): Daniel Engel
Influenza is a world-wide public health problem and emerging forms of the virus have the potential to cause a pandemic of equal or greater magnitude to the outbreaks recorded in 1918, 1957 or 1968. Vaccine development is proceeding and there also exist two classes of anti-influenza compounds. However these therapeutic modalities are neither fully effective nor widely enough available to fulfill global needs. In addition their potential usefulness against newly emergent strains is not known. Efforts are needed to develop novel agents against influenza virus, including broad-spectrum agents. Identification of small molecules that inhibit NS1 function either directly or by interfering with specific cellular pathways may be a key to increasing our defense against the virus.
We have miniaturized and optimized a cell based assay in which NS1 from influenza A is expressed in the budding yeast S. cerevisiae. NS1 is a multi-functional protein that counters the host innate immune response and facilitates viral versus cellular gene expression. Expression of NS1 causes a pronounced slow growth phenotype in yeast due to its intrinsic molecular activities. Small molecules that suppress the slow growth phenotype can be identified by a straightforward growth recovery assay using optical density (OD) as the measurement. The same yeast strain not expressing NS1 was used as positive control in the yeast growth recovery assay.
The yeast S. cerevisiae control and NS1 expressing cells were kindly supplied by laboratory of Dr. Daniel Engel, University of Virginia. Yeast starter cultures were stored in single use aliquots at -80C.
1. Yeast culture medium per liter: 1.2 g Yeast Nitrogen Base (w/out amino acids and Ammonium Sulphate), 5.0g Ammonium Sulphate, 0.77g -URA DO (drop-out) Supplement, adjust pH to 6.0. Adjust to 2% glucose prior to inoculating with yeast.
2. Yeast assay medium: 1.2 g Yeast Nitrogen Base (w/out amino acids and Ammonium Sulphate), 5.0g Ammonium Sulphate, 0.77g -URA DO (drop-out) Supplement, adjust pH to 6.0. Adjust to 2% D-galactose prior to inoculating with yeast.
1. Inoculate 100 mls of yeast culture medium with 1 ml of frozen yeast aliquote. Incubate overnight at 30C, 250RPM.
2. Harvest overnight culture at 4000 RPM and wash pellet with 15 mls H2O 3x.
3. Re-suspend washed pellet in 10 mls of yeast assay medium.
4. Prepare a 1:100 dilution of re-suspended culture in yeast assay medium.
5. Dispense 3.5 ul per well of reagents in step 4 in columns 2-48 in a black clear bottom 1536 well plate.
6. Dispense 3.5 ul per well of yeast assay medium in column 1 only.
7. Transfer 23 nl of compound per well.
8. Dispense 3.5 ul per well of yeast assay medium in columns 1-48.
9. Read plate using Viewlux protocol for optical density 600 (OD600) using excitation filter 600nm.
Potency is the fitted concentration of half-maximal effect.

| Compound | activity, positive = more growth | Potency |
| --- | --- | --- |
| CCOc1ccc(OCc2ccc(C(=O)Nc3ccc(Cl)cn3)o2)cc1 | -30.1% |  |
| CCc1nnc(NC(=O)CSc2ncc(-c3ccccc3)n2C)s1 | -46.8% |  |
| Cc1nnc(-c2cccc(Br)c2)c2cn(-c3cccc(Br)c3)nc12 |  | active: 8.91 µM |
| O=C1c2[nH]nc(-c3ccccc3O)c2C(c2ccccc2)N1Cc1ccco1 (stereo not given) | -126% |  |
| Cc1noc(NS(=O)(=O)c2ccc(NC(=O)COc3ccc(Cl)cc3Cl)cc2)c1C | -37.2% |  |
| CCCCn1c(O)c(C(CC)=Nc2ccc(OCC)cc2)c(=O)[nH]c1=O | -30.8% |  |
| COc1ccc(CCNC(=O)CN(c2ccccc2OC)S(=O)(=O)c2ccc(C)cc2)cc1 | -43% |  |
| O=C(O)c1cn(-c2ccccc2)nc1-c1ccc(F)cc1 | -47% |  |
| Cc1ccc(Sc2ccc(NC(=O)CCl)cc2)c(C)c1 | -61.9% |  |
| Cc1ccccc1OCC(=O)NCCC1=CCCCC1 | -39.8% |  |
| CCOc1ccc(NC(=O)c2cccnc2C(=O)O)cc1 |  | active: 4.47 µM |
| O=C(O)CCC(=O)N1CCN(c2nc(-c3ccccc3Cl)c3cc(Br)ccc3n2)CC1 | -80.1% |  |
| COc1ccc(C2CC(c3ccccc3)=NN2c2ccc(C(N)=O)cc2)cc1 (stereo not given) | -101% |  |
| Nc1nnc(-c2cc3ccccc3oc2=O)s1 | -13.8% |  |
| O=C(Nc1cnn(Cc2ccc(Cl)cc2Cl)c1)c1noc2c1CCCC2 | -66.2% |  |
| Sc1oc(-c2ccccc2)cc1C=Nc1ccccc1 | inactive: -48% |  |
| COc1ccc(Cl)c(Cn2c(NCc3ccccn3)nc3c2c(=O)n(C)c(=O)n3C)c1 | -51% |  |
| CC(C)C(NS(=O)(=O)c1ccc2c(c1)Cc1cc(S(=O)(=O)NC(C(=O)O)C(C)C)ccc1-2)C(=O)O (stereo not given) | 30.4% |  |
| CC1=CC(C)(C)N(C(=O)c2ccccc2)c2ccccc21 | -44.5% |  |
| Cc1ccc(OCc2n[nH]c(=S)n2-c2ccc(Br)cc2)cc1 | -112% |  |
| CCCn1c2c(c(O)c(C(=O)Nc3nccs3)c1=O)CCCC2 | -69.8% |  |
| CCOC(=O)C(Nc1ccc2ccccc2c1)C(=O)OCC | -44.6% |  |
| CCCCn1nnc(N(C(=O)c2cccs2)C(=O)c2cccs2)n1 | inactive: -43% |  |
| O=C(O)c1ccc(NC(=S)NC(=O)C(c2ccccc2)c2ccccc2)cc1 | -47.9% |  |
| Cc1ccc(N/C(C(Cl)=C(Cl)Cl)=C(/Cl)[N+](=O)[O-])c(C)c1 | inactive: -85.7% |  |
| O=C(Nc1scc(-c2ccc(F)cc2)c1C(=O)O)c1ccco1 | inactive: -138% |  |
| COC(=O)CCC(=O)Nc1cccc(Br)c1 | -49.7% |  |
| Cc1nc2ccc(NC(=O)c3cc([N+](=O)[O-])cc([N+](=O)[O-])c3Cl)cc2s1 | 58.5% |  |
| O=C(CN1CCN(S(=O)(=O)c2ccccc2)CC1)Nc1ccc2c(c1)CCC2 | -59.2% |  |
| CCc1[nH]c(=O)c(C#N)c2c1CCCC2 | 43.1% |  |
